Measured values as given in PMC10726135.
The list shows a part of the results. At the low end of the ranking the order means little. Measured with an extract: partners may take part in the binding.

Biological target: T1, HNF4alpha2 (COS-7 nuclear extract) (UniProt P41235)
T1 sequence: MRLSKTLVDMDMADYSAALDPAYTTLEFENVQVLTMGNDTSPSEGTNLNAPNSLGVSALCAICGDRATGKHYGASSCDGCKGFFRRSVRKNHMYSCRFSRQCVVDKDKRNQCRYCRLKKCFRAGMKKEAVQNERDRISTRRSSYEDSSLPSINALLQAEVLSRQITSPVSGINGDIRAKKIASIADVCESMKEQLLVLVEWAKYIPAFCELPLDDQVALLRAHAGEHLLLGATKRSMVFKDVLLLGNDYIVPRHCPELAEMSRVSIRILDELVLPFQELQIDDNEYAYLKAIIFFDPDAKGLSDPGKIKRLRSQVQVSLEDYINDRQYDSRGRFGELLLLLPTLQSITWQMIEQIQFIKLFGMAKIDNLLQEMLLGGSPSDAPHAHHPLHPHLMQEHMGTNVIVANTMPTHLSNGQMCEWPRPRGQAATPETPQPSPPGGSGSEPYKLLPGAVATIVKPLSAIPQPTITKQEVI
Experiment: protein-binding microarray
Conditions: COS-7 nuclear extract on double-stranded Agilent 4x180k PBM; binding buffer, salt, pH and temperature not given; high values mean tight binding; double strand, one strand shown; sequences stand for … in …GCCTAGGGAGATTAGAGTATCGGTCGA

| Sequence | binding signal (log2 normalized intensity) |
| --- | --- |
| ACTGCAGGGGGGTGGGCACCCCTGCCCCCA | 2.82 |
| GTTAGCAACCGGAAGTGGCTAGAGGTCGCG | -0.0731 |
| ACTCCTTTGCTTATCTGATAAGTCCATACC | 1.53 |
| AGTCCAGGGTAGGAGCCTCTGATTTGCTGA | -1.14 |
| AGTCCAGGCAGGACATCAAAGAACAAGTAT | -1.19 |
| TGACAAGCAAACACAAACTATGACCTTTGA | 8.49 |
| ATAAGGCCCGGCTGATGGGACCAAAGGTGA | 2.39 |
| GCATAGGGAGAATGATAAGATATATGACTC | -0.707 |
| CAAAGGTCAACAAACGCCCCTTGGATGAAT | 3.25 |
| TGTACCTGGGGCAAACATCAATTTAGACCG | -0.61 |
| GAGCGCTTTGAGGCCTATGGCGAAAAAGGA | -0.829 |
| GTCCCCTGTGCTTTGGCCAAATAATAGCAT | 1.45 |
| GGCTCTCCCCACTTACTTCCTGATAACCTG | 0.86 |
| CTAACCTTCGTCCTTGCCCCTGGCTGGGCC | 0.692 |
| CTTATCTAGATAAGTTGGTTTACTTATGTC | 0.989 |
| TCAAAAACCCATGGGAAGCTTCACAAAGGG | -1.19 |
| CAGCTCTGGGCCCCTCGGCCGCTCCCTCCC | 1.73 |
| AAGCTTCACAAAGGGCTGAGGTTAAAGTCC | 6.22 |
| GCAAAAATGCAGGCAATGAATAGAACAAAT | -1.02 |
| GTGATAACGACATTCTTTGGATATGAAGGT | 1.19 |
| TGCTTAGCGGCCTTCCCCTTTTTCTGTAAA | 1.56 |
| TTCAACTGGAGGATAAAGTTCAAGTAGATA | 1.92 |
| AGGCCTAACTGGCTTTGTCTGCTCAGGAAT | -1.13 |
| GACACACATGAGCTAGTGCTAAAGGTCATA | 5.47 |
| TAACCACATTCTTTCTGCATCGCAGTCGCC | -0.939 |

| Sequence | binding signal (log2 normalized intensity) |
| --- | --- |
| AGGCCATCTGCTGGAGAATCCTCTCTTGCT | -1.05 |
| AAAGAGCAACTACTCTCTCTTCTGGAGGAG | -1.07 |
| TGGGTTGGAACCCCGTTTCTCCTACCTCAT | -1.08 |
| ATCTGACAGAGATAAGGAAGTTCCAACATC | -1.17 |
| ATGAGCAAGGTGGGTTCAGAGACCCTAGAG | -1.21 |
| CTACAGGGTATGAATTTAACCTTTGCTCTC | 6.87 |
| CTGCCTCCAGCTGTTGGTGACTGACCCTGA | 3.16 |
| GAGGCAGGATGACTGCTTGAGTCCAGGAGT | -1.08 |
| GGGTGACCAGTGGACCATGAGAAACATCCA | -1.16 |
| ACTGAAAGCTATCCCTCCATATTGCAGACA | -0.965 |
| TTCAGCTTATAAATCTTCAACTGGAGGATA | 1.01 |
| ATTTTGGGGCTGTATTTACATGGATTAGTC | 1.08 |
| ACATGTCATTGGCAGAAGGTGGAACAGTCA | 1.07 |
| TGGTACTGGACATGGTCTAAGAAAAGCAGG | -0.541 |
| AGGAACAGGCCCCAGGGACTTTGGCCTTAC | 5.18 |
| AGATTCCAGAGGGAGGGAGGGTGGAGGAAC | -1.21 |
| AAGGCTCTCTGTTGACCACCTGCCCCAGGA | 1.19 |
| TCTTGGAGAGAAAAAATCAGAGAGCAAAGG | 1.25 |
| AGTTTTTGCCCTTAAGCAGCATGTAGTTTA | 0.375 |
| AATCTTCAGCTGCCTTTTGCCAGGCTACAG | -1.17 |
| CAAGATTTGGTGTTACCTTTGGACTGTCCT | 4.79 |
| GATGATCAGTAAGGAGAGGGGGCGGGGAGA | -1.13 |
| TACTCAATAACCACATGAATACACATAATG | -0.904 |
| TCCTACAAGGGAGATAAACTTTATCTCCCT | -1.09 |
| AAGGTAAGTGACCCTGGTCTTTGCCCTTTC | 4.87 |

| Sequence | binding signal (log2 normalized intensity) |
| --- | --- |
| ATCTTACTTTGAGGTGTTCTCTGGGGTTAG | 1.97 |
| GTCTCCAGGCAAACTACAGTTTCTGTTTTC | 0.0797 |
| GCTGTGCCTGAATGCAGGGAGCAGAGTCCC | -0.435 |
| CAATCTTGAGATAAGTACACAAAAGAGCTT | -1.07 |
| ATCATCACGGTGGACATTGTCCAAGGGCTG | 1.28 |
| GCCCTCAGGGAGCTCCAGCACTGGGGGACC | -1.11 |
| TGGCTGCTGCTCTCAACTTTCCCTCAGTTC | -1.18 |
| TTCAAACACAGGATTGAACCTCTGGAATTC | 1.58 |
| TTTCCAGCTTTGATAGTCTGCTACCATCAG | -1.12 |
| AAGGACTGAGATAAGAGAAGGGGTCAGGTA | 1.52 |
| TCTTCCCCTCCTTCAGGTCAAGAGGGCCTC | 2.29 |
| AAGTCCATCTGGGCAAGGTGTCAACCTTCA | 0.12 |
| AAAGGTCATATCCAAAATATTTGCAGTGAG | 1.79 |
| ACAGTTCGAACAGTTGGCCACCTTTGGCCG | 4.2 |
| CCCAATGCAGTACTATGCAATAACCAGGGA | -0.648 |
| TAACTGAAAGTCATGCTGAAGTACAGATTC | -0.0105 |
| TTGCACTGTGCTTTGTTTACTTAACCTTTG | 4.05 |
| ATTCAAGAAAGGGGCAAAGTTTATGTGTGA | 2.76 |
| ACACCTTTTCTAGCTGAGTTGACCTGTGTT | 4.02 |
| GTCAGGGAAGGTGCCAAGCATTCTAATCAT | -1.07 |
| CTCAGTGTTCCACAGCAAGTAAATTCCGGG | 0.0134 |
| TTGAAAGGGACTTAGAATCGAATTGTGAAA | -0.196 |
| AAGAAATAAAAACAGCTGGGTTCCAAAAGG | 0.155 |
| TGTCCTTGGCCTCACAGACAGATAGCAAAA | -1.07 |
| CTCTGATCTGACCCCTTCTTGACCTGCGTA | 3.59 |

| Sequence | binding signal (log2 normalized intensity) |
| --- | --- |
| TTATCAGGACTTTGTGATTACATTGAGTCC | 1.76 |
| GTGTTCCCAGGGGCTCCCACCAGGGGGAGG | -1.03 |
| ATTTAGAGACAATCACTTGTATCGCCTGAA | -0.547 |
| TGAGAGAGAAGGCAAGATTTTGTCCTGAGT | -0.289 |
| TCTTTTTGCCACTAGGGGTCACTGTCACAT | 2.7 |
| TTACAGTGTGAATCTCCAACAAGGCAGGAG | -0.93 |
| ACCTGTCTCTCTGCATTCCTCCTGGCCTCT | 1.32 |
| GGAAGTGGGGAAGAAGTGTTCCCCTGTCAC | 1.36 |
| TCTGGGGTATAAAGGTCAGGGATAGAACTG | 2.91 |
| TTCAGATACAAGCTAATCTGACCAAGTGAA | -0.303 |
| GGGTTCCAAGACCAAGCAAGCCAGTCAGAA | -1.16 |
| CCCCCAAGGCATGGGACCTTTGCCCTTCTT | 6.09 |
| ATAGTTCAGCCATCAGGTAACATATTGTCC | 0.597 |
| TGTGTGTTCTGGACTTCTCTGCCCTCTTCC | 2.98 |
| GTTATGAGTCTGTTGTCTAACATTTTTGAC | 0.629 |
| CATGTTTACTTTTGCAAGGTTTGTTCTTAT | 1.85 |
| AGGAAAAAAATAGGAGACTGTCTTAGGAAA | -1.16 |
| AGGAATGAGACATGAATCCATCCCACCTCA | -0.775 |
| GCCACGGTCAGCAATGTGGACTTTGTCCTG | 9.67 |
| CAGAAGGTCAGAGATCAGGTCTCTTTTATG | 1.16 |
| TTGCTCATGACTATTCTCTAAACTCTGGGC | 0.606 |
| CAGGGAAATATGTTCCACCCAGGGTGGCAG | -0.87 |
| ATCACAAGACATGAAGATGCAGAACAAGGT | -0.697 |
| CACTTTGAGCAAGATAATGACTAAGGCAGG | -1.23 |
| CCCCCACTGCCTGACCCCAAGTAATAGCCG | 5.25 |

| Sequence | binding signal (log2 normalized intensity) |
| --- | --- |
| CCTGAAACTAGACCAAGAAGACTTTGGGGG | -1.09 |
| GGATAATGTGCCCTTTGTACCTGGGGCAAA | 5.03 |
| GCCTTTTGGCTAAAGTCCAAATTCCTTGGA | 3.74 |
| GGACCCTGTTACCACACCACAGCGGGGCCT | -1.1 |
| CCTGGCCCTCTGGGTTGGAACCCCGTTTCT | 0.586 |
| GACGTTATCAGCAGGAGGAGGAGCCAGTGA | -0.808 |
| AAAGTTTGAGGAGAGTCAAAGGTTAATGAG | 2.84 |
| CCAGGCCAACCGGTTCCACAGTATCCCTTG | -1.1 |
| GAGGATATCCCTCCGCCTCCCTCCCCCTTT | 5.4 |
| TGGTGCTGATGTGTTCGCCCCTAGGACACG | 1.37 |
| ATTGGTTTACAGCACTTCATCCTTATGTAA | 1.4 |
| AATAGTACACATCAAAGTATGAGAGCCTGA | -1.14 |
| CATTCTTTTCCCCATACCAGGCAGTTTCCC | 2.57 |
| CCTCCAGGCCCCAGCCACGCCCTCTAACCC | 2.92 |
| CAAGTTTGAACTGCACAGGCCTACTTATAG | -1.15 |
| TTCACCAATTTCCCCCATGAAATTGAGATA | 3.17 |
| GAACAGGTTCAGATAAGACAAGCTCTGTTT | -1.14 |
| TGGCTGCATCCTTCTCCTCCCCTCCCCCCA | 5.97 |
| CTCCTCCCCCCGCCGCATCTACCAGCGTAA | 4.2 |
| ACCTCACAAAGGGGGCCTGAAGGGTGTTGT | 0.874 |
| ACAGGCTTAACATAAAGGGTTGAAGAAAGA | -1.08 |
| GTGCACTTTGACCCTGCTGTAGTGTGTAAG | 4.93 |
| AGCAGATGCTTCCCAGAAAGAATGAGCGGG | -1.05 |
| GCACTGAGGAATGGAAGGACCTTGGACTGA | 4.38 |
| CACACACAGACATAAACACAGACACACATG | -1.19 |

| Sequence | binding signal (log2 normalized intensity) |
| --- | --- |
| CAGAGTTCACTTTCCTCTCATTTCTGAACA | 0.895 |
| AAAAGGACACAGGGTCTGTTTTCAAACACA | -0.841 |
| GCAAATACAGGTGAATTTCAGTGCCCTTTG | 3.07 |
| GGGGGAGGGTAAATATAGTTAAAGCCAGCT | -1.09 |
| TCATGATTTAGTAAGTTCAAGAAGACCTTT | 3.54 |
| CCCAGACACACCTGCAATGGAAAATTCCAT | -1.07 |
| ACGGAAGGCCGGGCCTCAAGGGAATCTGCT | -1.18 |
| TAATATTTGCAAATGACTTTGAGAGTAAGT | 1.01 |
| AGGTCATTGTGCTGACTGGTTGGAATTCCA | 0.632 |
| GCTACATGATACAGCCTTTTGCCCCCAGGC | 4.45 |
| TCCAAGGTTCAGCTCCATCTGAACTCTTCA | 1.84 |
| GCTGAGGAATTTGGACTTCAGCCCAGGCTG | 3.66 |
| TCTGTTTCCAGAAATCTGACCTCTGCCTCG | 3.73 |
| AGCCTCTATGTCAGGCCATTTCACCTTTGC | 3.72 |
| CTTCAAGTCAGTTGCATGCAACCTTTGTCC | 5.67 |
| CTGACTCACGGCAGCTTGTACCCTTCTTTC | 1.49 |
| ACACTCAGGTCTTTCTGGAGATAACAGTGT | 1.62 |
| CCCCGCCCCGCGTCCGTGCACCCTTCCTCT | 3.84 |
| GTGATAATGGATGGCAAATAAAGGAACTCT | -0.176 |
| TTTATCCTTTTTTGAAGGTTAAAGTCCATT | 7 |
